# From the supplement of paper PMC8728848
# The other results are listed elsewhere or left out.
# What was measured:
# Assay in all cases: glycan array binding signal (z-score within array); higher = stronger binding
# Settings in all cases: glycan notation: IUPAC condensed, linker removed
# [1] = target: Gal(a1-3)GalNAc
# How it was run: (§1)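 From the Consortium for Functional Glycomics database, 3228 arrays were curated, keeping only those whose protein sequence was available. Binding is given as a within-array Z-score averaged across arrays sharing a protein sequence and across linkers. Negative Z-scores can be read as non-binding.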
# [2] = target: Gal(a1-3)[Gal(a1-4)]Gal(b1-4)GlcNAc
# How it was run: as §1
# [3] = target: Gal(a1-4)Gal(b1-3)GlcNAc(b1-2)Man(a1-3)[Gal(a1-4)Gal(b1-3)GlcNAc(b1-2)Man(a1-6)]Man(b1-4)GlcNAc(b1-4)GlcNAc
# How it was run: as §1
# [4] = target: Gal(a1-4)Gal(b1-4)Glc
# How it was run: as §1
# [5] = target: Gal(a1-4)Gal(b1-4)GlcNAc
# How it was run: as §1
# [6] = target: Gal(a1-4)Gal(b1-4)GlcNAc(b1-2)Man(a1-3)[Gal(a1-4)Gal(b1-4)GlcNAc(b1-2)Man(a1-6)]Man(b1-4)GlcNAc(b1-4)GlcNAc
# How it was run: as §1
# [7] = target: Gal(a1-4)Gal(b1-4)GlcNAc(b1-3)Gal(b1-4)Glc
# How it was run: as §1
# [8] = target: Gal(a1-4)GlcNAc
# How it was run: as §1
# [9] = target: Gal(a1-6)Glc
# How it was run: as §1
# [10] = target: Gal(b1-2)Gal
# How it was run: as §1
# [11] = target: Gal(b1-3)Gal
# How it was run: as §1
# [12] = target: Gal(b1-3)Gal(b1-4)GlcNAc
# How it was run: as §1
# [13] = target: Gal(b1-3)Gal(b1-4)GlcNAc(b1-2)Man(a1-3)[Gal(b1-3)Gal(b1-4)GlcNAc(b1-2)Man(a1-6)]Man(b1-4)GlcNAc(b1-4)GlcNAc
# How it was run: as §1
# [14] = target: Gal(b1-3)GalNAc
# How it was run: as §1
# [15] = target: Gal(b1-3)GalNAc(a1-3)[Fuc(a1-2)]Gal(b1-4)Glc
# How it was run: as §1
# [16] = target: Gal(b1-3)GalNAc(a1-3)[Fuc(a1-2)]Gal(b1-4)GlcNAc
# How it was run: as §1
# [17] = target: Gal(b1-3)GalNAc(b1-3)Gal(a1-4)Gal(b1-4)Glc
# How it was run: as §1
# [18] = target: Gal(b1-3)GalNAc(b1-4)Gal(b1-4)Glc
# How it was run: as §1
# [19] = target: Gal(b1-3)GalNAc(b1-4)[Neu5Ac(a2-3)]Gal(b1-4)Glc
# How it was run: as §1
# [20] = target: Gal(b1-3)GlcNAc
# How it was run: as §1
# [21] = target: Gal(b1-3)GlcNAc(a1-6)Gal(b1-4)GlcNAc
# How it was run: as §1
# [22] = target: Gal(b1-3)GlcNAc(b1-2)Man(a1-3)[Gal(b1-3)GlcNAc(b1-2)Man(a1-6)]Man(b1-4)GlcNAc(b1-4)GlcNAc
# How it was run: as §1
# [23] = target: Gal(b1-3)GlcNAc(b1-2)Man(a1-3)[Gal(b1-3)GlcNAc(b1-2)Man(a1-6)]Man(b1-4)GlcNAc(b1-4)[Fuc(a1-6)]GlcNAc
# How it was run: as §1
# [24] = target: Gal(b1-3)GlcNAc(b1-3)Gal(b1-3)GlcNAc
# How it was run: as §1
# [25] = target: Gal(b1-3)GlcNAc(b1-3)Gal(b1-4)Glc
# How it was run: as §1
# [26] = target: Gal(b1-3)GlcNAc(b1-3)Gal(b1-4)GlcNAc
# How it was run: as §1
# [27] = target: Gal(b1-3)GlcNAc(b1-3)Gal(b1-4)GlcNAc(b1-6)[Gal(b1-3)GlcNAc(b1-3)]Gal(b1-4)Glc
# How it was run: as §1
# [28] = target: Gal(b1-3)GlcNAc(b1-3)Gal(b1-4)[Fuc(a1-3)]GlcNAc(b1-6)[Gal(b1-3)GlcNAc(b1-3)]Gal(b1-4)Glc
# How it was run: as §1
# [29] = target: Gal(b1-3)GlcNAc(b1-3)GalNAc
# How it was run: as §1
# [30] = target: Gal(b1-3)GlcNAc(b1-6)Gal(b1-4)GlcNAc
# How it was run: as §1
# [31] = target: Gal(b1-3)[Fuc(a1-4)]GlcNAc
# How it was run: as §1
# [32] = target: Gal(b1-3)[Fuc(a1-4)]GlcNAc(b1-2)Man(a1-3)[Gal(b1-3)[Fuc(a1-4)]GlcNAc(b1-2)Man(a1-6)]Man(b1-4)GlcNAc(b1-4)GlcNAc
# How it was run: as §1
# [33] = target: Gal(b1-3)[Fuc(a1-4)]GlcNAc(b1-2)Man(a1-3)[Gal(b1-3)[Fuc(a1-4)]GlcNAc(b1-2)Man(a1-6)]Man(b1-4)GlcNAc(b1-4)[Fuc(a1-6)]GlcNAc
# How it was run: as §1
# [34] = target: Gal(b1-3)[Fuc(a1-4)]GlcNAc(b1-3)Gal(b1-3)[Fuc(a1-4)]GlcNAc
# How it was run: as §1
# [35] = target: Gal(b1-3)[Fuc(a1-4)]GlcNAc(b1-3)Gal(b1-4)GlcNAc
# How it was run: as §1
# [36] = target: Gal(b1-3)[Fuc(a1-4)]GlcNAc(b1-3)Gal(b1-4)[Fuc(a1-3)]GlcNAc
# How it was run: as §1
# [37] = target: Gal(b1-3)[GlcNAc(b1-6)]GalNAc
# How it was run: as §1
# [38] = target: Gal(b1-3)[Neu5Ac(a2-6)]GalNAc
# How it was run: as §1
# [39] = target: Gal(b1-3)[Neu5Ac(a2-6)]GlcNAc(b1-6)Gal(b1-4)Glc
# How it was run: as §1
# [40] = target: Gal(b1-3)[Neu5Ac(b2-6)]GalNAc
# How it was run: as §1
# [41] = target: Gal(b1-4)GalNAc(a1-3)[Fuc(a1-2)]Gal(b1-4)GlcNAc
# How it was run: as §1
# [42] = target: Gal(b1-4)GalNAc(b1-3)[Fuc(a1-2)]Gal(b1-4)GlcNAc
# How it was run: as §1
# [43] = target: Gal(b1-4)Glc
# How it was run: as §1
# [44] = target: Gal(b1-4)Glc6S
# How it was run: as §1
# [45] = target: Gal(b1-4)GlcNAc
# How it was run: as §1
binder,measurement,setting,value
"CTLY 1 (Homo sapiens), Q6ZS10 (protein) AITCPEGWLPFEGKCYYFSPSTKSWDEARMFCQENYSHLVIINSFAEHNFVAKAHGSPRVYWLGLNDRAQEGDWRWLDGSPVTLSFWEPEEPNNIHDEDCATMNKGGTWNDLSCYKTTYWICERKGLNDIFEAQKIEWHE",glycan array binding signal (z-score),[1],-0.24
same,glycan array binding signal (z-score),[2],-0.253
same,glycan array binding signal (z-score),[3],-0.122
same,glycan array binding signal (z-score),[4],-0.252
same,glycan array binding signal (z-score),[5],-0.233
same,glycan array binding signal (z-score),[6],-0.231
same,glycan array binding signal (z-score),[7],-0.255
same,glycan array binding signal (z-score),[8],-0.246
same,glycan array binding signal (z-score),[9],-0.242
same,glycan array binding signal (z-score),[10],-0.229
same,glycan array binding signal (z-score),[11],-0.248
same,glycan array binding signal (z-score),[12],-0.245
same,glycan array binding signal (z-score),[13],-0.232
same,glycan array binding signal (z-score),[14],-0.238
same,glycan array binding signal (z-score),[15],-0.242
same,glycan array binding signal (z-score),[16],-0.237
same,glycan array binding signal (z-score),[17],-0.229
same,glycan array binding signal (z-score),[18],-0.241
same,glycan array binding signal (z-score),[19],-0.249
same,glycan array binding signal (z-score),[20],-0.246
same,glycan array binding signal (z-score),[21],-0.236
same,glycan array binding signal (z-score),[22],-0.056
same,glycan array binding signal (z-score),[23],-0.139
same,glycan array binding signal (z-score),[24],-0.251
same,glycan array binding signal (z-score),[25],-0.245
same,glycan array binding signal (z-score),[26],-0.224
same,glycan array binding signal (z-score),[27],-0.224
same,glycan array binding signal (z-score),[28],-0.233
same,glycan array binding signal (z-score),[29],-0.233
same,glycan array binding signal (z-score),[30],-0.234
same,glycan array binding signal (z-score),[31],0.451
same,glycan array binding signal (z-score),[32],-0.179
same,glycan array binding signal (z-score),[33],0.746
same,glycan array binding signal (z-score),[34],0.622
same,glycan array binding signal (z-score),[35],-0.216
same,glycan array binding signal (z-score),[36],1.2
same,glycan array binding signal (z-score),[37],-0.228
same,glycan array binding signal (z-score),[38],-0.228
same,glycan array binding signal (z-score),[39],-0.24
same,glycan array binding signal (z-score),[40],-0.248
same,glycan array binding signal (z-score),[41],-0.224
same,glycan array binding signal (z-score),[42],-0.216
same,glycan array binding signal (z-score),[43],-0.243
same,glycan array binding signal (z-score),[44],-0.248
same,glycan array binding signal (z-score),[45],-0.245
